From the supplement of paper PMC7125110
± gives the standard error. Variants at the floor of the assay are shown more often than the library holds them.

B1: glmS ribozyme (parent)
chain: AUAAAAGCGCCAGAACUACAGAAAUGUAGUUGACGAGGAGGAGGUUUAUCGAAUUUUCGGCGGAUGCCUCCAAA

Columns and labels:
Conditions in all cases: with glucosamine-6-phosphate
[1] = variants of: B1; test: self-cleavage kobs at 640 uM GlcN6P; higher = faster cleavage; RNA array
Method in brief: (§1)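 On sequenced MiSeq chips, barcoded ribozyme variants were made in situ by E. coli RNA polymerase and followed at 37 °C through a hybridised Cy3 probe. Glucosamine-6-phosphate was flowed in at 40 μM to 10 mM in HEPES/KCl/Mg(OAc)2 buffer. Exponential fits to normalised per-tile medians gave kobs, and weighted Michaelis–Menten fits gave kcat and KM.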

[2] = variants of: B1; test: self-cleavage kobs at 160 uM GlcN6P; higher = faster cleavage; RNA array
Method in brief: as §1

[3] = variants of: B1; test: self-cleavage kobs at 2500 uM GlcN6P; higher = faster cleavage; RNA array
Method in brief: as §1

[4] = variants of: B1; test: self-cleavage kobs at 10000 uM GlcN6P; higher = faster cleavage; RNA array
Method in brief: as §1

C50G G51C G60A G66U
self-cleavage kobs at 640 uM GlcN6P [1]: < 1e-05 s⁻¹
self-cleavage kobs at 160 uM GlcN6P [2]: < 1e-05 s⁻¹
self-cleavage kobs at 2500 uM GlcN6P [3]: < 1e-05 s⁻¹

C50G G63C
self-cleavage kobs at 640 uM GlcN6P [1]: < 1e-05 s⁻¹
self-cleavage kobs at 160 uM GlcN6P [2]: 3.67e-05 ± 1.6e-05 s⁻¹

C50U A64G C68U
self-cleavage kobs at 640 uM GlcN6P [1]: < 1e-05 s⁻¹

C50U G51U G62A
self-cleavage kobs at 640 uM GlcN6P [1]: < 1e-05 s⁻¹

G51A C58U A64C
self-cleavage kobs at 640 uM GlcN6P [1]: < 1e-05 s⁻¹
self-cleavage kobs at 160 uM GlcN6P [2]: < 1e-05 s⁻¹

G51A U55C
self-cleavage kobs at 640 uM GlcN6P [1]: < 1e-05 s⁻¹
self-cleavage kobs at 160 uM GlcN6P [2]: < 1e-05 s⁻¹
self-cleavage kobs at 10000 uM GlcN6P [4]: < 1e-05 s⁻¹

G51C U54C A64U
self-cleavage kobs at 640 uM GlcN6P [1]: < 1e-05 s⁻¹
self-cleavage kobs at 2500 uM GlcN6P [3]: < 1e-05 s⁻¹

G51U A53G U55A
self-cleavage kobs at 640 uM GlcN6P [1]: < 1e-05 s⁻¹
self-cleavage kobs at 2500 uM GlcN6P [3]: < 1e-05 s⁻¹

A52C C58G G63C
self-cleavage kobs at 640 uM GlcN6P [1]: < 1e-05 s⁻¹
self-cleavage kobs at 2500 uM GlcN6P [3]: < 1e-05 s⁻¹

A52C G62A
self-cleavage kobs at 640 uM GlcN6P [1]: < 1e-05 s⁻¹
self-cleavage kobs at 2500 uM GlcN6P [3]: < 1e-05 s⁻¹

A52C G63C
self-cleavage kobs at 640 uM GlcN6P [1]: < 1e-05 s⁻¹
self-cleavage kobs at 2500 uM GlcN6P [3]: < 1e-05 s⁻¹
self-cleavage kobs at 10000 uM GlcN6P [4]: < 1e-05 s⁻¹

A52U A53C A64U
self-cleavage kobs at 640 uM GlcN6P [1]: < 1e-05 s⁻¹

A52U C68U
self-cleavage kobs at 640 uM GlcN6P [1]: 6.72e-05 ± 8.8e-06 s⁻¹
self-cleavage kobs at 160 uM GlcN6P [2]: 1.96e-05 ± 8.9e-06 s⁻¹
self-cleavage kobs at 2500 uM GlcN6P [3]: 0.000158 ± 1.4e-05 s⁻¹
self-cleavage kobs at 10000 uM GlcN6P [4]: 0.000236 ± 2.4e-05 s⁻¹

A52U C71U
self-cleavage kobs at 640 uM GlcN6P [1]: 0.0001 ± 1.4e-05 s⁻¹
self-cleavage kobs at 2500 uM GlcN6P [3]: 0.000275 ± 2.9e-05 s⁻¹
self-cleavage kobs at 10000 uM GlcN6P [4]: 0.000362 ± 3.4e-05 s⁻¹

A52U U56C G62C
self-cleavage kobs at 640 uM GlcN6P [1]: < 1e-05 s⁻¹
self-cleavage kobs at 2500 uM GlcN6P [3]: < 1e-05 s⁻¹

A53U U55C A64G C71G
self-cleavage kobs at 640 uM GlcN6P [1]: < 1e-05 s⁻¹

U54A A64G C68G
self-cleavage kobs at 640 uM GlcN6P [1]: 5.8e-05 ± 2.1e-05 s⁻¹
self-cleavage kobs at 2500 uM GlcN6P [3]: 0.000109 ± 3.5e-05 s⁻¹

U54A C58A
self-cleavage kobs at 640 uM GlcN6P [1]: 9.65e-05 ± 1.3e-05 s⁻¹
self-cleavage kobs at 160 uM GlcN6P [2]: 2.83e-05 ± 1.3e-05 s⁻¹
self-cleavage kobs at 2500 uM GlcN6P [3]: 0.000217 ± 2.9e-05 s⁻¹
self-cleavage kobs at 10000 uM GlcN6P [4]: 0.000547 ± 5.7e-05 s⁻¹

U54A G66A
self-cleavage kobs at 640 uM GlcN6P [1]: 0.00513 ± 0.00085 s⁻¹
self-cleavage kobs at 160 uM GlcN6P [2]: 0.00093 ± 0.00023 s⁻¹
self-cleavage kobs at 2500 uM GlcN6P [3]: 0.00986 ± 0.0017 s⁻¹

U55A G59C
self-cleavage kobs at 640 uM GlcN6P [1]: < 1e-05 s⁻¹
self-cleavage kobs at 10000 uM GlcN6P [4]: < 1e-05 s⁻¹

U56A C58A
self-cleavage kobs at 640 uM GlcN6P [1]: 0.000101 ± 1.3e-05 s⁻¹
self-cleavage kobs at 160 uM GlcN6P [2]: 3.2e-05 ± 1.1e-05 s⁻¹
self-cleavage kobs at 2500 uM GlcN6P [3]: 0.000187 ± 2.3e-05 s⁻¹

U56C G66C
self-cleavage kobs at 640 uM GlcN6P [1]: 6.26e-05 ± 2.2e-05 s⁻¹
self-cleavage kobs at 2500 uM GlcN6P [3]: 8.66e-05 ± 2.4e-05 s⁻¹

U56G A64C
self-cleavage kobs at 640 uM GlcN6P [1]: 2.44e-05 ± 1.1e-05 s⁻¹
self-cleavage kobs at 160 uM GlcN6P [2]: < 1e-05 s⁻¹
self-cleavage kobs at 2500 uM GlcN6P [3]: 3.92e-05 ± 1.5e-05 s⁻¹
self-cleavage kobs at 10000 uM GlcN6P [4]: 6.35e-05 ± 8.6e-06 s⁻¹

U57C A64U
self-cleavage kobs at 640 uM GlcN6P [1]: < 1e-05 s⁻¹
self-cleavage kobs at 160 uM GlcN6P [2]: < 1e-05 s⁻¹
self-cleavage kobs at 10000 uM GlcN6P [4]: < 1e-05 s⁻¹

U57C C61G
self-cleavage kobs at 640 uM GlcN6P [1]: < 1e-05 s⁻¹
self-cleavage kobs at 160 uM GlcN6P [2]: < 1e-05 s⁻¹

U57C G60U
self-cleavage kobs at 640 uM GlcN6P [1]: < 1e-05 s⁻¹
self-cleavage kobs at 160 uM GlcN6P [2]: < 1e-05 s⁻¹
self-cleavage kobs at 2500 uM GlcN6P [3]: < 1e-05 s⁻¹
self-cleavage kobs at 10000 uM GlcN6P [4]: < 1e-05 s⁻¹

U57C U65C
self-cleavage kobs at 640 uM GlcN6P [1]: < 1e-05 s⁻¹

U57G G66U
self-cleavage kobs at 640 uM GlcN6P [1]: < 1e-05 s⁻¹

C58A G59A
self-cleavage kobs at 640 uM GlcN6P [1]: < 1e-05 s⁻¹
self-cleavage kobs at 160 uM GlcN6P [2]: < 1e-05 s⁻¹

C58G G63U A64C
self-cleavage kobs at 640 uM GlcN6P [1]: < 1e-05 s⁻¹

C58G U65C
self-cleavage kobs at 640 uM GlcN6P [1]: < 1e-05 s⁻¹
self-cleavage kobs at 2500 uM GlcN6P [3]: < 1e-05 s⁻¹

C58U C61G
self-cleavage kobs at 640 uM GlcN6P [1]: 5.03e-05 ± 1.4e-05 s⁻¹

G59A G60U C67U
self-cleavage kobs at 640 uM GlcN6P [1]: < 1e-05 s⁻¹

G59C A64G U69G
self-cleavage kobs at 640 uM GlcN6P [1]: < 1e-05 s⁻¹

G59C G66C
self-cleavage kobs at 640 uM GlcN6P [1]: < 1e-05 s⁻¹
self-cleavage kobs at 10000 uM GlcN6P [4]: < 1e-05 s⁻¹

G60A C61U
self-cleavage kobs at 640 uM GlcN6P [1]: < 1e-05 s⁻¹
self-cleavage kobs at 160 uM GlcN6P [2]: < 1e-05 s⁻¹
self-cleavage kobs at 2500 uM GlcN6P [3]: < 1e-05 s⁻¹
self-cleavage kobs at 10000 uM GlcN6P [4]: < 1e-05 s⁻¹

G60A U65A
self-cleavage kobs at 640 uM GlcN6P [1]: < 1e-05 s⁻¹
self-cleavage kobs at 160 uM GlcN6P [2]: < 1e-05 s⁻¹
self-cleavage kobs at 2500 uM GlcN6P [3]: < 1e-05 s⁻¹

G60C C61A U69G
self-cleavage kobs at 640 uM GlcN6P [1]: < 1e-05 s⁻¹
self-cleavage kobs at 2500 uM GlcN6P [3]: < 1e-05 s⁻¹
self-cleavage kobs at 10000 uM GlcN6P [4]: < 1e-05 s⁻¹

G60U G63U C70A
self-cleavage kobs at 640 uM GlcN6P [1]: < 1e-05 s⁻¹

C61G G63U
self-cleavage kobs at 640 uM GlcN6P [1]: < 1e-05 s⁻¹
self-cleavage kobs at 2500 uM GlcN6P [3]: < 1e-05 s⁻¹

C61U C67G
self-cleavage kobs at 640 uM GlcN6P [1]: < 1e-05 s⁻¹

U65A C71G
self-cleavage kobs at 640 uM GlcN6P [1]: 0.000124 ± 1.6e-05 s⁻¹
self-cleavage kobs at 160 uM GlcN6P [2]: 4.31e-05 ± 1.1e-05 s⁻¹
self-cleavage kobs at 2500 uM GlcN6P [3]: 0.000382 ± 9.3e-05 s⁻¹
self-cleavage kobs at 10000 uM GlcN6P [4]: 0.000383 ± 8.9e-05 s⁻¹

U69C C70G
self-cleavage kobs at 640 uM GlcN6P [1]: 4.82e-05 ± 1.6e-05 s⁻¹

A6C A12C G40C
self-cleavage kobs at 160 uM GlcN6P [2]: < 1e-05 s⁻¹

A6C G35U G40U C67U
self-cleavage kobs at 160 uM GlcN6P [2]: < 1e-05 s⁻¹

A6C G38C G62C
self-cleavage kobs at 160 uM GlcN6P [2]: < 1e-05 s⁻¹

A6C U54G
self-cleavage kobs at 160 uM GlcN6P [2]: < 1e-05 s⁻¹
self-cleavage kobs at 2500 uM GlcN6P [3]: 3.94e-05 ± 9.9e-06 s⁻¹
self-cleavage kobs at 10000 uM GlcN6P [4]: 7.93e-05 ± 1.1e-05 s⁻¹

A6G A12U G32U
self-cleavage kobs at 160 uM GlcN6P [2]: < 1e-05 s⁻¹
self-cleavage kobs at 2500 uM GlcN6P [3]: < 1e-05 s⁻¹

A6G A15U U30C
self-cleavage kobs at 160 uM GlcN6P [2]: < 1e-05 s⁻¹

A6G G7U A14G A33C
self-cleavage kobs at 160 uM GlcN6P [2]: < 1e-05 s⁻¹

A6G G40C C50G
self-cleavage kobs at 160 uM GlcN6P [2]: < 1e-05 s⁻¹

A6G G40U U65C
self-cleavage kobs at 160 uM GlcN6P [2]: < 1e-05 s⁻¹
self-cleavage kobs at 2500 uM GlcN6P [3]: < 1e-05 s⁻¹

A6U C8A C16A
self-cleavage kobs at 160 uM GlcN6P [2]: < 1e-05 s⁻¹

A6U C8G
self-cleavage kobs at 160 uM GlcN6P [2]: < 1e-05 s⁻¹
self-cleavage kobs at 2500 uM GlcN6P [3]: < 1e-05 s⁻¹
self-cleavage kobs at 10000 uM GlcN6P [4]: < 1e-05 s⁻¹

A6U C8U C70G
self-cleavage kobs at 160 uM GlcN6P [2]: < 1e-05 s⁻¹
self-cleavage kobs at 2500 uM GlcN6P [3]: < 1e-05 s⁻¹
